Data published in PubChem BioAssay AID686971 (National Center for Advancing Translational Sciences (NCATS), 2013).
The campaign covered roughly 360,000 compounds. About 7,500 (2.1%) were called active. The inconclusive results got no clear call from the source; some entries with a clear call stand among them for comparison. The call rests on the fitted dose curve; in most records, active means well fitted cell-killing curve with a large enough effect; inconclusive means small, poorly fitted or top-dose-only effect, or effect the other way, or another doubt; inactive means no such curve, though single readings can be large or run the other way. No potency is given beside an inconclusive call; the fits are too rough.

Assay: qHTS for induction of synthetic lethality in tumor cells producing 2HG: qHTS for the HT-1080-IDH1KD cell line;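 on activity, negative = toxicity: 0% = DMSO wells and -100% = cell-free medium wells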
Conditions: HT-1080 IDH1 knockdown viability, ATP luminescence, 48 h; activity, negative = toxicity: at 46.1 µM (top of the series) unless noted
How it was run: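 Assay cells: HT-1080 with IDH1 knockdown, 750 per well, RPMI/5% FBS. Exposure: 48 h at 37 °C following 2 h pre-incubation. Read: CellTiter-Glo luminescence; fitted concentration-response, curve class assigned.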
Potency means the concentration at half of the fitted maximal effect; tags describe the fitted curve by direction and shape.

| SMILES | activity, negative = toxicity | Potency |
| --- | --- | --- |
| CC(NC(=O)COC(=O)/C(=C/c1cccs1)c1cccs1)c1ccccc1 (stereo not drawn) | inactive: -7.38% | – |
| Cc1nn(-c2ccc(Cl)c(Cl)c2)c(=O)c2ccccc12 | inactive: -3.52% | – |
| COc1ccc(-c2ncc(CN3CCC(CO)(Cc4cccc(OC)c4)CC3)cn2)cc1 | inconclusive: -30.3% [cytotoxic] | – |
| CC(C)NC(=O)/C(C#N)=C/c1cccc(NC(=O)c2ccccc2Cl)c1 | – | inconclusive [cytotoxic, single point] |
| Cc1ccc(C)c(NC(=O)CN(C)C(=O)c2cc(C3CC3)nn2-c2ccccc2)c1 | inactive: 0% | – |
| COC(=O)c1cc(=O)n(Cc2ccco2)c(=Nc2ccc(F)c(Cl)c2)s1 | – | inconclusive [cytotoxic, single point] |
| C[C@H](NC(=O)c1nc[nH]c1C(=O)N1CCN(c2ccccc2)CC1)c1ccccc1 | inactive: 19.1% | – |
| CCOC(=O)N1CCc2c(sc3nc(SC(C)C)n(N)c(=O)c23)C1 | inactive: -17% | – |
| COc1cc(C2NCC(c3ccc(Cl)cc3Cl)c3c2[nH]c2ccccc32)cc(OC)c1OC (stereo not drawn) | – | active: 14.6 µM |
| COC(=O)c1c(NC(=S)Nc2ccc(F)cc2[N+](=O)[O-])sc2c1CCCCC2 | inactive: 10.6% | – |
| CCn1c2ccccc2c2cc(N)ccc21 | – | inconclusive [cytotoxic, single point] |
| COc1ccc(OC)c(NC(=O)CC2SC(=NCc3ccccc3)NC2=O)c1 (stereo not drawn) | – | inconclusive [cytotoxic, single point] |
| Cc1ccsc1C(=O)N1CCCCCC1(C)C(=O)NCC(C)C (stereo not drawn) | inactive: 0.587% | – |
| COc1ccc2cc3c(nc2c1)OCC3 | inactive: -3.49% | – |
| CCOC(=O)c1ccc(N2C(=O)c3n[nH]c(-c4ccco4)c3C2c2ccc([N+](=O)[O-])cc2)cc1 (stereo not drawn) | – | inconclusive [cytotoxic, single point] |
| Cc1ccccc1OCC(=O)Nc1cc(S(=O)(=O)N2CCCCC2)ccc1N1CCN(C)CC1 | – | inconclusive [cytotoxic, partial curve] |
| O=S(=O)(NCCc1ccc(F)cc1)c1ccc(F)cc1Br | inactive: 5.17% | – |
| Cc1ccnc(NS(=O)(=O)c2ccc(NC(=O)c3cc(-c4ccc(Br)cc4)nc4ccccc34)cc2)n1 | – | inconclusive [cytotoxic, single point] |
| CS/C(=N\S(=O)(=O)c1cccs1)Nc1ccc(F)c(Cl)c1 | inactive: -5.04% | – |
| Oc1cccc(-c2ccc3nccn3c2)c1 | – | inconclusive [cytotoxic, single point] |
| CN(C(=S)Nc1ccc(SC(F)F)cc1)C(c1ccccc1)c1ccccc1 | – | inconclusive [cytotoxic, single point] |
| CC(C)(C)CC(C)(C)Nc1c(-c2ccc(O)cc2)nc2cnccn12 | – | inconclusive [cytotoxic, single point] |
| O=C(Cc1ccccc1F)OCC(=O)N1CCc2ccccc21 | inactive: 12.8% | – |
| Cc1cc(C)c(/C=N/NC(=O)c2nnn(-c3nonc3N)c2CN2CCC(C)CC2)c(C)c1 | – | inconclusive [cytotoxic, single point] |
| CCCOc1ccc(C(=O)NNC(=S)NC(=O)c2cccs2)cc1 | – | active: 20.6 µM |

| SMILES | activity, negative = toxicity | Potency |
| --- | --- | --- |
| Cc1cccc2sc(N(CCCN(C)C)C(=O)c3ccc(C(=O)c4ccccc4)cc3)nc12 | – | inconclusive [cytotoxic, single point] |
| Cn1c(-c2c(N)n(C3CCCC3)c3nc4ccccc4nc23)nc2ccccc21 | – | inconclusive [cytotoxic, single point] |
| COCCCNC(=O)c1ccccc1NS(=O)(=O)c1ccc(C)cc1 | inactive: 0.0511% | – |
| COc1ccc2c(c1)c(=O)oc1cc(OCC(=O)N3CCC(C)CC3)ccc12 | – | inconclusive [cytotoxic, single point] |
| CCN(CC)CCCNc1nc(-n2nc(C)cc2C)nc2sc3c(c12)CC(C)(C)OC3 | – | inconclusive [cytotoxic, single point] |
| CCc1cccc(OCC2Cn3c(nc4c3c(=O)n(C)c(=O)n4C)O2)c1 (stereo not drawn) | – | inconclusive [cytotoxic, single point] |
| CCCCCCCCCCOC(=O)Cn1c(COc2ccc(C)cc2)[n+](C)c2ccccc21 | – | inconclusive [cytotoxic, single point] |
| Cc1ccc(/C=C/c2ccc3cccc(O)c3n2)s1 | inactive: -21.8% | – |
| CCn1c(=O)c2ccccc2n2c(SCC(=O)N3CCc4ccccc4C3)nnc12 | inactive: 11.1% | – |
| CN1CCN(C(c2ccccc2)c2ccc(Cl)cc2)CC1 (stereo not drawn) | – | inconclusive [cytotoxic, partial curve] |
| Cc1nc(-c2ccccn2)nc(N(C)c2ccccc2)c1Cl | inactive: 0.104% | – |
| Cc1cccnc1C(c1ccc(F)cc1)N(C)C(=O)C1CCN(CCCOc2ccc(F)cc2)CC1 (stereo not drawn) | – | inconclusive [cytotoxic, single point] |
| COc1cccc2sc(=NC(=O)CS(=O)(=O)c3ccc(Cl)cc3)n(C)c12 | – | inconclusive [cytotoxic, partial curve] |
| CN(C(=O)c1cccc(NC(=O)Cc2cccc(NC(=O)C3CCN(C(=O)C4CCC4)CC3)c2)c1)C1CCC1 | inactive: 0.543% | – |
| CCOC(=O)c1cc(C)n(-c2ccccc2)c1C | inactive: 11.2% | – |
| COc1cc(/C=C(\NC(=O)c2ccccc2)C(=O)NCC(=O)O)c([N+](=O)[O-])cc1OC | inactive: 9.93% | – |
| CC(C)c1ccc(C2CC(c3ccc(Br)cc3)=NN2C(N)=S)cc1 (stereo not drawn) | – | inconclusive [cytotoxic, single point] |
| O=C(Nc1ccc2oc(-c3ccccc3)nc2c1)c1cccnc1 | inactive: -1.1% | – |
| OCCC1CN(Cc2cccn2-c2ncccn2)CCN1CCc1ccccc1 (stereo not drawn) | inactive: 2.83% | – |
| COc1ccc(Nc2cnn(-c3nc4ccccc4s3)c(=O)c2Cl)cc1 | – | inconclusive [cytotoxic, single point] |
| O=C(Nc1ccc(Br)cc1)c1cc(-c2ccncc2)nc2ccccc12 | – | active: 8.2 µM |
| COc1ccc2c(c1)C=C(CN1CCN(C(C)C)C(CCO)C1)CO2 (stereo not drawn) | inactive: 0.362% | – |
| CN1C(=O)NC(c2ccc(O)cc2)C(C(=O)c2cccs2)C1(O)C(F)(F)F (stereo not drawn) | – | inconclusive [cytotoxic, single point] |
| c1ccc(-c2nc3nonc3nc2-c2ccccc2)cc1 | – | inconclusive [cytotoxic, single point] |
| O=C(c1ccncc1)N(c1ccc2oc3c(c2c1)CCCC3)S(=O)(=O)c1ccc(F)cc1 | – | inconclusive [cytotoxic, single point] |

| SMILES | activity, negative = toxicity | Potency |
| --- | --- | --- |
| COc1ccc(C(C(=O)NC(C)(C)C)n2c(=O)c(-c3cc4ccccc4[nH]3)nc3ccccc32)cc1 (stereo not drawn) | – | inconclusive [cytotoxic, partial curve] |
| CCN(CC)S(=O)(=O)c1ccc(N2CCc3ccccc3C2)nc1 | – | inconclusive [cytotoxic, single point] |
| CCc1cc(C(=O)N2CCN(c3ncc(C(F)(F)F)cc3Cl)CC2)sc1C | – | inconclusive [cytotoxic, single point] |
| Cc1[nH]nc(C(=O)NN=Cc2ccccc2Cl)c1N=NN(C)C | – | active: 23.1 µM |
| CCOc1ccc(C(=O)COC(=O)C2CCN(c3ccc(C(F)(F)F)cn3)CC2)cc1 | inactive: -13% | – |
| COc1ccc(C(=O)Cn2c(C(C)=O)nc3ccccc32)cc1 | – | inconclusive [cytotoxic, single point] |
| CCCCC[C@H](C)N1C[C@H](COCc2ccccc2)Oc2cc(N3CCC[C@H]3C(N)=O)ccc2S1(=O)=O | – | inconclusive [cytotoxic, single point] |
| O=C(N/N=C/c1ccc([N+](=O)[O-])o1)c1ccc(O)cc1 | – | active: 6.51 µM |
| N#CCCN1C(=O)C2(OCCO2)c2ccccc21 | inactive: 8.76% | – |
| Cc1cc(C(=O)Nc2cnn(Cc3ccc(Cl)cc3Cl)c2)no1 | inactive: -28.9% | – |
| O=C(NC(=S)Nc1cc([N+](=O)[O-])ccc1O)c1ccc2c(c1)OCO2 | – | inconclusive [cytotoxic, single point] |
| O=C(Nc1ccc2c(c1)nc1n2CCSC1)c1ccccc1 | inactive: 0.67% | – |
| O=[N+]([O-])/C=C\c1ccc(N2CCCC2)c(F)c1 | – | active: 3.26 µM |
| COc1cccc2c1C(=N)c1c(O)c3c(c(O)c1C2=O)CC(O)(C(C)=O)CC3OC1CC(N)C(O)C(C)O1 (stereo not drawn) | – | active: 20.6 µM |
| C/C(=N/Nc1ccc([N+](=O)[O-])cc1)c1c[nH]c2ccccc12 | – | inconclusive [cytotoxic, single point] |
| O=C(N/N=C/c1cc(Cl)ccc1O)c1ccc(Br)cc1 | – | active: 5.8 µM |
| CCOc1ccc(-c2cn3ccccc3n2)cc1[N+](=O)[O-] | – | active: 16.4 µM |
| NS(=O)(=O)c1ccc(NC(=O)COC(=O)c2c3c(nc4ccccc24)/C(=C\c2ccc4c(c2)OCO4)CCC3)cc1 | – | inconclusive [cytotoxic, single point] |
| COc1ccc(CCNC(=O)c2nnn(-c3cc(C)cc(C)c3)c2N)cc1OC | inactive: -3.78% | – |
| C(=C\c1nnc2c3ccccc3ncn12)/c1ccccc1 | – | active: 5.8 µM |
| CCC1(CC)C(=O)C2=C3C1[C@H](C(=O)OC)CC(C(=O)OC)C[C@H]3[C@H]1C(=O)N(c3ccccc3)C(=O)[C@H]1[C@H]2C (stereo partly drawn) | inactive: -5.73% | – |
| O=[N+]([O-])c1ccc(-c2cnc(SC(c3ccccc3)c3ccccc3)[nH]2)cc1 | – | active: 20.6 µM |
| CCOc1ccc(CCN2C(=S)N([C@@H](CC(C)C)CN3CCC[C@@H]3CN3C(=S)NC[C@@H]3Cc3ccccc3)C[C@@H]2Cc2ccc(O)cc2)cc1 | – | inconclusive [cytotoxic, partial curve] |
